Results from publication PMC4336329 (PLoS ONE, 2015).
Screen size: about 310,000 compounds; about 14,000 (4.5%) showed an effect of 50% or more. Effects have a minus sign here. Some of the results follow.

Each molecule was assayed against human ether-à-go-go-related gene (hERG) potassium channel (human, UniProt Q12809) (assay: primary screen, population patch clamp on CHO cells stably expressing hERG).
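Also: peak tail current of the secondary pulse compared with the same well before compound.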

Sequence of human ether-à-go-go-related gene (hERG) potassium channel (Q12809 whole entry, looked up): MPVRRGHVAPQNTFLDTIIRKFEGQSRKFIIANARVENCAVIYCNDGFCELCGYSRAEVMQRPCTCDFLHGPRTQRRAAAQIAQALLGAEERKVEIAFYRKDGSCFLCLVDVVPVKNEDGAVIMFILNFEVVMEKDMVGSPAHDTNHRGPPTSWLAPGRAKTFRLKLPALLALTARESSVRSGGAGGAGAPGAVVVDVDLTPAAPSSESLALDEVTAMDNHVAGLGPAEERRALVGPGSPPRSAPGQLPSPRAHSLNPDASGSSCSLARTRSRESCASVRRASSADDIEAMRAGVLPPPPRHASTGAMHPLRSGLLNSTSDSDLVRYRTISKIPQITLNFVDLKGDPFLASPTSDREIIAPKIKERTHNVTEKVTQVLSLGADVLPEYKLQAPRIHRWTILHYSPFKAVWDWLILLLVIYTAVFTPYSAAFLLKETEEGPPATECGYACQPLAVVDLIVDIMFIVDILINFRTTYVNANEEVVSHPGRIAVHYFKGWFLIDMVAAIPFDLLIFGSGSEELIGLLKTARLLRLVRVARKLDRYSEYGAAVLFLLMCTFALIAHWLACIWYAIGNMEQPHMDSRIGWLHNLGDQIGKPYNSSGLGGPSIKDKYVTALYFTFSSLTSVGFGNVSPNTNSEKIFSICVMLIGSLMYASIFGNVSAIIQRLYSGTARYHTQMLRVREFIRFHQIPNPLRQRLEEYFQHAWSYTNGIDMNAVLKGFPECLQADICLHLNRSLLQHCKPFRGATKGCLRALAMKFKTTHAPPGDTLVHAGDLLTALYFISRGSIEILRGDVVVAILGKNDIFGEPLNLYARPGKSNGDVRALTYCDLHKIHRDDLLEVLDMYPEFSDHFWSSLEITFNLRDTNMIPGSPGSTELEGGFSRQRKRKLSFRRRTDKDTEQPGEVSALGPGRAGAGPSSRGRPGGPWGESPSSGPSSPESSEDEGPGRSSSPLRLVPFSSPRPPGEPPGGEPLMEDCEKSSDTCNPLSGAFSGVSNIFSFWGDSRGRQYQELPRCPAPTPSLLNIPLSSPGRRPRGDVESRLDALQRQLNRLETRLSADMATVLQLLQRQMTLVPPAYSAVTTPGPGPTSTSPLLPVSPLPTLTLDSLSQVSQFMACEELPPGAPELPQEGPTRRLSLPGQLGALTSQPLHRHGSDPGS

| SMILES | hERG current change (%, negative = inhibition) at 10uM |
| --- | --- |
| CCCCN(C)C(=O)c1cc2cc3cc(OC)ccc3nc2o1 | -30.8% |
| COc1ccccc1NC(=O)CC(=O)CSc1nnc(-c2ccc(C)cc2)n1-c1ccccc1 | -9.58% |
| COc1ccc(S(=O)(=O)N2CCC(C(=O)N[C@@H](C)C(=O)NC3CCCC3)CC2)cc1 | 13.4% |
| FC(F)(F)c1nc(SCc2ccc(Cl)cc2Cl)n[nH]1 | -0.342% |
| Cc1ccc(NC2CCCN(C(=O)c3cc(C(C)C)[nH]n3)C2)cc1C (stereo not drawn) | 7.88% |
| COc1ccc(NCc2nn(CC(=O)c3ccc(Br)cc3)c3[n+]2CCCCC3)cc1.[Br-] | 10.1% |
| O=C(COC(=O)c1cnccn1)NCCc1ccccc1 | 17.7% |
| CC(=O)c1cc2c(cc1NC(=O)CCn1cccc1)OCO2 | 2.39% |
| CCN(C(=O)c1ccc(NC(C)=O)cc1)c1ccccc1C | 10.9% |
| O=C(Cn1nc2ccccc2n1)N/N=C/c1cc([N+](=O)[O-])ccc1O | -38.3% |
| CCCc1nnc(NC(=O)CCC(=O)N2CCN(S(=O)(=O)c3ccc(F)cc3)CC2)s1 | 2.65% |
| Cc1onc(-c2c(Cl)cccc2Cl)c1C(=O)Nc1ccc2c(C(F)(F)F)cc(=O)oc2c1 | -16% |
| O=C(c1scc2c1CCCC2)N1CCCCC1 | 15.6% |
| CCCc1cc(=O)[nH]c(SCC(=O)c2cc(C)n(-c3c(C)n(C)n(-c4ccccc4)c3=O)c2C)n1 | 38.6% |
| CN1/C(=C\C(=O)COC(=O)Cn2nnc(-c3ccccc3)n2)C(C)(C)c2ccccc21 | 5.89% |
| COc1cccc(NC(=O)[C@H](CC(C)C)NC(=O)N2CCn3c2nc2ccccc23)c1 | 7.14% |
| CSCC[C@H](NC(=O)OC(C)(C)C)c1nnc(SCC(=O)Nc2c(C)cccc2C)o1 | -14.5% |
| Cc1ccc(C(=O)NC(=S)Nc2ccc(N3CCOCC3)cc2)cc1 | 8.78% |
| Cc1ccc(C2(C)NC(=O)N(CC(=O)N3CCN(S(=O)(=O)c4ccc(Cl)s4)CC3)C2=O)cc1 (stereo not drawn) | -58% |
| O=C(Nc1ccc([N+](=O)[O-])cc1)c1ccccc1 | 10.7% |
| CN(CC(=O)NCCc1ccc(F)cc1)Cc1cccc(Cl)c1 | -27.7% |
| CCOC(=O)CSc1nc2cccnc2n1C | 13.1% |

| SMILES | hERG current change (%, negative = inhibition) at 10uM |
| --- | --- |
| CCc1c(C)nc2ncnn2c1NCc1cccs1 | -11.7% |
| O=S(=O)(c1ccc(OC(F)(F)F)cc1)N1CCC(O)(c2cccc(C(F)(F)F)c2)CC1 | -4.35% |
| O=C(Cn1c(=O)sc2ccccc21)NCc1ccco1 | 0.0638% |
| O=C1OC(N2CCN(C(=O)C3CCCO3)CC2)c2ccccc21 (stereo not drawn) | 0.234% |
| Cc1cnc(C(=O)OCC(=O)Nc2ccc3c(c2)OCCO3)cn1 | 10.3% |
| CCn1c(=O)c2ccccc2n(CC(=O)NCCC2=CCCCC2)c1=O | 17% |
| CCC(C)Sc1nc(C)nc2c1c(=O)n(C)c(=O)n2C (stereo not drawn) | -26.5% |
| O=C1CCCc2nc(N3CCc4ccccc43)ncc21 | -3.87% |
| COc1ccc(-c2ccc(SCC(=O)N3CC(=O)Nc4ccccc43)nn2)cc1 | -48.2% |
| COc1ccccc1-c1cc(C(=O)N2CCN(S(=O)(=O)c3ccc(C)cc3)CC2)[nH]n1 | 3.99% |
| Cc1ccc(S(=O)(=O)N2CCN(C(=O)c3ccc4ccccc4n3)CC2)c(C)c1 | -34.9% |
| Cc1ccc(CNC(=O)C2CCCN(c3nc4ccsc4c(=O)s3)C2)cc1 (stereo not drawn) | -4.21% |
| Cc1ccc(CNC(=O)CN(C)S(=O)(=O)c2ccc3c(c2)n(C)c(=O)c(=O)n3C)cc1 | 13.7% |
| O=C1CCC(C(=O)Nc2nnc(C3CC3)s2)=NN1 | 29.8% |
| Cc1ccc(Cn2c(C(=O)O)cc3sccc32)cc1 | -3.12% |
| Cc1ccc2ncc(NC(=O)c3ccc(F)cc3)c(=O)n2c1 | -12.6% |
| O=C(O)c1ccc2c(c1)C(=O)N(c1ccc(Cl)cn1)C2=O | 2.65% |
| COc1ccc(-n2c(SCC(=O)Nc3cc(C)on3)nc3c([nH]c4ccccc43)c2=O)cc1 | 8.92% |
| Cc1nnc(-c2ccccc2)[nH]c1=O | 18.7% |
| CCOC(=O)C(CCCOc1cccc(CC)c1)C(=O)OCC | 5.61% |
| NS(=O)(=O)c1ccc(CCNc2ccc(C(F)(F)F)cn2)cc1 | -7.34% |
| COC(=O)[C@@H]1Cc2c([nH]c3ccccc23)C2CCC(=O)N21 (stereo partly drawn) | 18.5% |

| SMILES | hERG current change (%, negative = inhibition) at 10uM |
| --- | --- |
| O=C(CSc1nc2ccccc2c(=O)[nH]1)Nc1ccc(N2CCOCC2)c(Cl)c1 | 12.7% |
| Cc1ccc(-c2n[nH]c(=S)n2/N=C/c2sccc2C)cc1 | 17.4% |
| O=C(NC1CCCCCC1)c1ccc(-n2cnnc2)cc1 | 8.15% |
| Cc1ccc(SCC(=O)O/N=C(\N)c2ccncc2)cc1 | -8.1% |
| CCCC(C(=O)NC1CCCC1)N(C(=O)Cn1nnc(-c2ccc(C)o2)n1)C1CCCC1 (stereo not drawn) | -15.3% |
| CC(Sc1nc2ccccc2c(=O)n1C)C(=O)NC1CCCCC1C (stereo not drawn) | 5.87% |
| Cc1nc(NC(=O)C2CC2)sc1C(=O)Nc1ccc(Br)cc1 | 45.5% |
| O=C(c1ccccc1)N1CCC(c2nc3c(nnn3Cc3ccccc3Cl)c(=O)[nH]2)CC1 | 10.1% |
| O=C(C1CCCN(S(=O)(=O)c2cccc3nonc23)C1)N1CCN(c2ccccc2)CC1 (stereo not drawn) | -42.3% |
| Cc1cccc(NC(=O)CCS(=O)(=O)c2ccc(Br)cc2)c1 | -9.57% |
| Cc1c(-c2ccccn2)c(=O)[nH]n1-c1ccc(F)cc1 | 8.75% |
| C=CCNC(=S)NNC(=O)c1cccn(Cc2ccc(Cl)cc2)c1=O | -27.1% |
| O=[N+]([O-])c1cccnc1N1CCN(c2ccccc2F)CC1 | -6.76% |
| CN(C(=O)CC1C(=O)NCCN1CC1CCCCC1)C1CCOCC1 (stereo not drawn) | 16.1% |
| Cc1ccc(C(=O)COC(=O)C2CC(=O)N(c3nc(-c4ccccc4)cs3)C2)cc1C (stereo not drawn) | -2.72% |
| CC(c1ccccc1)N1CNc2c(c(=O)n(C)c(=O)n2C)C1 (stereo not drawn) | 8.25% |
| CC(=O)n1nc(-c2ccncc2)nc1SCC(=O)Nc1cccc(Cl)c1 | 21.2% |
| COc1ccc(CN(C)C(=O)C2CSC3(C)CCC(=O)N23)cc1 (stereo not drawn) | -3.5% |
| Cc1ccc(Sc2c(C(=O)Nc3ccc(F)cc3F)c(C(F)(F)F)nn2C)cc1 | 16.6% |
| O=C1N=C(N2C=CC(=C3C=CNC=C3)C=C2)/C(=C/N=NC(=O)c2ccccc2)S1 | 30.3% |
| N#Cc1ccccc1NC(=O)C(=O)NCC1CCCN1S(=O)(=O)c1cccs1 (stereo not drawn) | -6.44% |
| COc1ccc(N2CCN(C(=O)c3ccc(-c4ccccc4)cc3)CC2)cc1 | 26.3% |

| SMILES | hERG current change (%, negative = inhibition) at 10uM |
| --- | --- |
| NNC(=O)/C(=C\c1cccs1)NC(=O)c1ccccc1 | 7.19% |
| COc1ccc(C(CNC(=O)CSc2ccccc2F)N2CCOCC2)cc1 (stereo not drawn) | 10.7% |
| Cc1ccc(S(=O)(=O)Nc2c(NC3CCCCC3)c3ccccc3oc2=O)c(C)c1 | -19.6% |
| NS(=O)(=O)c1ccc(CNC(=O)c2ccc3ccccc3n2)cc1 | 13.6% |
| COc1ccccc1-c1nnc(SCc2nc3ccccc3[nH]2)n1C | -12.6% |
| CCN1C(=O)c2cccc3c(S(=O)(=O)Nc4ncccc4C)ccc1c23 | -9.98% |
| COc1ccc(/C=C(\C#N)C(=O)Nc2ccccn2)cc1 | 13.1% |
| CCCN1/C(=C(/C#N)C2=NS(=O)(=O)c3ccccc32)N(C)c2ccccc21 | -19.3% |
| COc1ccc(C(=O)Cn2cc([N+](=O)[O-])nc2C)cc1 | 11.7% |
| Br.CC(=O)c1ccc(N2Cc3ccccc3C3(CCOCC3)C2=N)cc1 | -57.5% |
| CCCCN(CC)C(=O)c1ccc(Cl)cc1 | 28.4% |
| Cc1cc(S(=O)(=O)N2CCC(N3CCCCC3)CC2)ccc1-n1cnnn1 | -1.17% |
| COc1cc(CC(=O)Nc2cc(S(C)(=O)=O)ccc2Cl)cc(OC)c1OC | 21.3% |
| S=c1[nH]nc(C2CCCCC2)n1/N=C/C=C/c1ccccc1 | 10.1% |
| CC1=C(C(=O)Nc2ccc(Br)cc2)C(c2ccco2)NC(=O)N1 (stereo not drawn) | -23.3% |
| CCc1ccccc1NC(=O)c1onc(C)c1Cl | 7.86% |
| COc1cc(C(=O)NCC(c2cccnc2)N2CCN(c3ccc(F)cc3)CC2)cc(OC)c1OC (stereo not drawn) | -25.7% |
| CCOC(=O)N1CCN(C(=O)c2cn(CC)c3ccc(S(=O)(=O)N4CCCCC4)cc3c2=O)CC1 | 12.2% |
| O=C(COc1ccc(Cl)cc1)NNC(=O)C(=O)NC1CCCCC1 | -21.2% |
| CC1CCCCN1CCCNC(=O)CN1C(=O)CSc2ccc(S(=O)(=O)N3CCOCC3)cc21 (stereo not drawn) | 19.5% |
| CCC1(CC)NC(=O)N(CC(=O)OC(C)C(=O)Nc2ccc(Cl)cn2)C1=O (stereo not drawn) | -51.7% |
